Reference: the supplement of paper PMC4967469

Key:
Test in all cases: Viability of human cancer cell lines after 72 h of drug (GDSC screen)
[1] = compound: c1ccc2c(CCNc3ccc(Nc4ccncc4)cc3)c[nH]c2c1 [JNJ-26854165]; settings: top dose 10 µM
Procedure: (§1)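 Human cancer cell lines in 384-well plates, medium with 10% serum, drug for 72 h over a 256-fold dose range (nine 2-fold or five 4-fold steps up to the top dose). Adherent lines were fixed and stained with the nucleic acid dye Syto60, suspension lines read with resazurin; signal relative to control wells, capped at 0 and 100%. One two-parameter sigmoid per drug and line, fitted in a mixed model over all curves with the slope shared within a line.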

[2] = compound: Cc1ccc(C(=O)N(CCCN)[C@@H](c2nc3cc(Cl)ccc3c(=O)n2Cc2ccccc2)C(C)C)cc1 [SB-715992]; settings: top dose 0.128 µM; top dose inferred
Procedure: as §1

[3] = compound: C[C@]1(O)C[C@@H](c2nc(-c3ccc4ccc(-c5ccccc5)nc4c3)c3c(N)nccn32)C1 [OSI-906]; settings: top dose 2.56 µM; top dose inferred
Procedure: as §1

[4] = compound: Cc1sc2c(c1C)C(c1ccc(Cl)cc1)=N[C@@H](CC(=O)OC(C)(C)C)c1nnc(C)n1-2 [JQ1]
Procedure: as §1

[5] = compound: O=C(/C=C/c1cccc(S(=O)(=O)Nc2ccccc2)c1)NO [Belinostat]; settings: top dose 20 µM; top dose inferred
Procedure: as §1

[6] = compound: CC1(C)CNc2cc(NC(=O)c3cccnc3NCc3ccncc3)ccc21 [AMG-706]; settings: top dose 2 µM; top dose inferred
Procedure: as §1

[7] = compound: CCOc1nc(NC(=O)Cc2cc(OC)ccc2OC)cc(N)c1C#N [JNK Inhibitor VIII]; settings: top dose 10 µM; top dose inferred
Procedure: as §1

[8] = compound: COC(=O)[C@H](CCSC)NC(=O)c1ccc(NC[C@@H](N)CS)cc1-c1ccccc1 [FTI-277]; settings: top dose 1.024 µM; top dose inferred
Procedure: as §1

[9] = compound: COCC[n+]1c2c(n(Cc3cnccn3)c1C)C(=O)c1ccccc1C2=O [YM155]; settings: top dose 5.12 µM
Procedure: as §1

[10] = compound: CN1CCN(c2ccc([N+](=O)[O-])c3no[n+]([O-])c23)CC1 [NSC-207895]; settings: top dose 20 µM; top dose inferred
Procedure: as §1

[11] = top dose 1 µM, screen: GDSC drug entry 1218, top dose inferred
[12] = top dose 2.56 µM, screen: GDSC drug entry 163

Row | Cell Line | AUC [1] | IC50 [1] | AUC [2] | IC50 [2] | AUC [3] | IC50 [3] | AUC [4, 11] | IC50 [4, 11] | AUC [4, 12] | IC50 [4, 12] | AUC [5] | IC50 [5] | AUC [6] | IC50 [6] | AUC [7] | IC50 [7] | AUC [8] | IC50 [8] | AUC [9] | IC50 [9] | AUC [10] | IC50 [10]
1 | C32 (melanoma, adherent) | 0.851 | 8440 nM | 0.951 | > 128 nM | 0.982 | > 2560 nM | 0.985 | > 1000 nM | 0.986 | > 2560 nM | 0.85 | 16800 nM | 0.9 | > 2000 nM | 0.939 | > 10000 nM | 0.985 | > 1020 nM | 0.655 | 888 nM | 0.984 | > 20000 nM
2 | GAMG (glioma, adherent) | 0.872 | > 10000 nM | 0.597 | 14.9 nM | 0.946 | > 2560 nM | 0.983 | > 1000 nM | 0.733 | 768 nM | 0.263 | 253 nM | 0.976 | > 2000 nM | 0.953 | > 10000 nM | 0.965 | > 1020 nM | 0.028 | < 20 nM | 0.966 | > 20000 nM
3 | A2780 (ovary, semi-adherent) | 0.872 | > 10000 nM | 0.573 | 12.8 nM | 0.919 | > 2560 nM | 0.983 | > 1000 nM | 0.708 | 634 nM | 0.341 | 446 nM | 0.971 | > 2000 nM | 0.964 | > 10000 nM | 0.932 | > 1020 nM | 0.058 | < 20 nM | 0.918 | > 20000 nM
4 | Hep 3B2_1-7 (liver, adherent) | 0.833 | 6450 nM | 0.979 | > 128 nM | 0.735 | 746 nM | 0.889 | > 1000 nM | 0.56 | 233 nM | 0.43 | 807 nM | 0.909 | > 2000 nM | 0.929 | > 10000 nM | 0.986 | > 1020 nM | 0.507 | 333 nM | 0.962 | > 20000 nM
5 | EBC-1 (lung squamous cell carcinoma, adherent) | 0.81 | 6100 nM | 0.781 | 60.1 nM | 0.975 | > 2560 nM | 0.978 | > 1000 nM | 0.538 | 205 nM | 0.641 | 3230 nM | 0.982 | > 2000 nM | 0.958 | > 10000 nM | 0.937 | > 1020 nM | 0.173 | 27.7 nM | 0.978 | > 20000 nM
6 | CAL-120 (breast, adherent) | 0.86 | > 10000 nM | 0.962 | > 128 nM | 0.962 | > 2560 nM | 0.974 | > 1000 nM | 0.77 | 1260 nM | 0.534 | 1590 nM | 0.949 | > 2000 nM | 0.976 | > 10000 nM | 0.937 | > 1020 nM | 0.088 | < 20 nM | 0.839 | 19800 nM
7 | NCI-H2030 (lung adenocarcinoma, adherent) | 0.931 | > 10000 nM | 0.763 | 52.5 nM | 0.908 | > 2560 nM | 0.937 | > 1000 nM | 0.73 | 802 nM | 0.526 | 1490 nM | 0.946 | > 2000 nM | 0.9 | > 10000 nM | 0.966 | > 1020 nM | 0.061 | < 20 nM | 0.93 | > 20000 nM
8 | SK-CO-1 (large intestine, adherent) | 0.968 | > 10000 nM | 0.972 | > 128 nM | 0.881 | 2410 nM | 0.986 | > 1000 nM | 0.966 | > 2560 nM | 0.479 | 1100 nM | 0.977 | > 2000 nM | 0.989 | > 10000 nM | 0.955 | > 1020 nM | 0.072 | < 20 nM | 0.958 | > 20000 nM
9 | OVCAR-3 (ovary, adherent) | 0.862 | 9990 nM | 0.983 | > 128 nM | 0.955 | > 2560 nM | 0.985 | > 1000 nM | 0.765 | 1030 nM | 0.987 | > 20000 nM | 0.974 | > 2000 nM | 0.984 | > 10000 nM | 0.985 | > 1020 nM | 0.977 | > 5120 nM | 0.987 | > 20000 nM
10 | MC-IXC (neuroblastoma, adherent) | 0.803 | 3510 nM | 0.414 | 4.95 nM | 0.883 | 1510 nM | 0.996 | > 1000 nM | 0.654 | 379 nM | 0.314 | 442 nM | 0.996 | > 2000 nM | 0.996 | > 10000 nM | 0.987 | > 1020 nM | 0.015 | < 20 nM | 0.69 | 3620 nM
11 | NCI-H727 (lung carcinoid, adherent) | 0.905 | > 10000 nM | 0.955 | > 128 nM | 0.551 | 240 nM | 0.945 | > 1000 nM | 0.63 | 463 nM | 0.7 | 6720 nM | 0.922 | > 2000 nM | 0.969 | > 10000 nM | 0.973 | > 1020 nM | 0.498 | 315 nM | 0.966 | > 20000 nM
12 | ME-180 (cervix, adherent) | 0.971 | > 10000 nM | 0.658 | 22.4 nM | 0.984 | > 2560 nM | 0.768 | 390 nM | 0.743 | 826 nM | 0.408 | 690 nM | 0.948 | > 2000 nM | 0.958 | > 10000 nM | 0.985 | > 1020 nM | 0.055 | < 20 nM | 0.96 | > 20000 nM

IC50 is the fitted dose that halves viability relative to control wells, and lower means more sensitive; fits outside the tested doses are given as limits. The AUC spans the tested range (256-fold, ending at the top dose) of the same fit; it is 1 without any effect and falls as sensitivity rises. For part of these data: Where the top dose is marked as inferred, it was derived from the fitted curves, not read from the paper. For part of these data: Drugs with an entry number were screened twice under separate entries, and the two screens often disagree.
